Results: PubChem BioAssay AID504832 (National Center for Advancing Translational Sciences (NCATS), 2011)
Out of some 310,000 compounds screened, about 18,000 (5.8%) were called active. The inconclusive results got no clear call from the source; some entries with a clear call stand among them for comparison. The call rests on the fitted dose curve; in most records, active means well fitted inhibition curve with a large enough effect; inconclusive means small, poorly fitted or top-dose-only effect, or another doubt; inactive means no such curve, though single readings can be large or run the other way. Potencies of inconclusive entries are left out as doubtful fits.

test: Primary qHTS for delayed death inhibitors of the malarial parasite plastid, 48 hour incubation; conditions: P. falciparum luciferase growth in erythrocytes; series mostly up to 28.7 µM; activity change, negative = inhibition: at the top concentration
In short: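 In quantitative HTS format, infected erythrocytes bearing luciferase-reporter parasites were treated for a single generation at 37 C. Luminescence after adding detection reagent served as the growth measure.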
On the % scale 0 is the no-effect control and ±100 the full control effect; potency means the concentration at half of the fitted maximal effect; tags describe the fitted curve by direction and shape.

Structure (SMILES) | Potency | activity change, negative = inhibition
COc1cccc(C(=O)NCC2(c3ccccc3)CCCC2)c1OC | inconclusive [inhibitor, single point] | 
COc1cccc(NC(=O)CNC(=O)N2CC(=O)Nc3ccccc32)c1 |  | inactive: 60.7%
Cc1ccc(S(=O)(=O)c2c(N)n(CCCN(C)C)c3nc4ccccc4nc23)cc1 | inconclusive [inhibitor, single point] | 
CCOc1c2ccc(C(=O)NCc3ccc4c(c3)OCO4)cc2nn1CCOC | inconclusive [inhibitor, single point] | 
CCC(=O)N1CCc2cc(S(=O)(=O)NC(C(=O)NC3CCCc4ccccc43)C(C)C)ccc21 (configuration not stated) | inconclusive [inhibitor, single point] | 
CCOc1ccc(CC(=O)NNC(=O)/C=C/C(=O)O)cc1 |  | inactive: 5.2%
O=C(CN1CCN(c2ccccn2)CC1)Nc1ccccc1C(=O)Nc1ccccc1 | inconclusive [inhibitor, single point] | 
O=C(NC1CC2CCCC(C1)N2Cc1ccc(F)cc1)c1ccc(F)cc1 (configuration not stated) | inconclusive [inhibitor, partial curve] | 
Cc1ccc(C)c(-c2ccc(=O)n(Cc3ccc(F)cc3Cl)n2)c1 | inconclusive [inhibitor, partial curve, poor fit] | 
O=C(NCCCN1CCCC1=O)c1c(O)nc2ccccn2c1=O |  | inactive: 14%
c1ccc(Nc2nc(N3CCOCC3)nc(N3CCOCC3)n2)cc1 | inconclusive [inhibitor, partial curve, poor fit] | 
COc1cc(OC)c(C(=O)N2CCCC2)cc1OC | inconclusive [inhibitor, partial curve] | 
COc1ccc(OCCOc2ccc(N(C)S(=O)(=O)c3ccccc3)cc2)cc1 | inconclusive [inhibitor, single point] | 
Cc1ccccc1NC(=O)c1sc2nc3c(c(-c4ccco4)c2c1N)CCC3 | inconclusive [inhibitor, single point] | 
COC(=O)C1=Cc2cc(OC)cc([N+](=O)[O-])c2OC1N1CCOCC1 (configuration not stated) | inconclusive [inhibitor, single point] | 
COc1ccccc1CNC(=O)CSc1n[nH]c(N)n1 | inconclusive [inhibitor, partial curve, poor fit] | 
COC(=O)c1cc2occc2n1Cc1nc(-c2ccccc2C)oc1C | inconclusive [inhibitor, single point] | 
OCC1OC([S-])[C@H](O)C(O)C1O.[Au+] (some centres not stated) |  | inactive: -21.6%
Cc1csc(NC(=O)C2CCCCN2S(=O)(=O)c2ccccc2)n1 (configuration not stated) | inconclusive [inhibitor, single point] | 
CC(=O)Nc1ccc(Nc2nc(-c3sc(NC(C)=O)nc3C)cs2)cc1 | inconclusive [inhibitor, single point] | 
CC(=O)N1C(c2ccccc2O)C[C@]2(C)CC(=O)NC12 (some centres not stated) | inconclusive [inhibitor, partial curve] | 

Structure (SMILES) | Potency | activity change, negative = inhibition
O=[N+]([O-])c1cccc(OCC(O)CN2CCN(S(=O)(=O)c3cc(Cl)ccc3Cl)CC2)c1 (configuration not stated) | inconclusive [inhibitor, partial curve, poor fit] | 
COc1cc(C(=O)OCc2csc(CC(=O)Nc3ccccc3C)n2)ccc1OCC(C)C | active: 13.1 µM | 
O=C(CC1N=C2c3ccccc3N=C(SCc3ccc(F)cc3)N2C1=O)NCc1ccco1 (configuration not stated) | active: 0.738 µM | 
CC(C)(C)c1cc2cccnc2n1Cc1cccc(F)c1 | inconclusive [inhibitor, single point] | 
COc1cccc(NC(=O)Cn2c3ccccc3c3nc4n(c(=O)c32)CCCS4)c1 | inconclusive [inhibitor, partial curve] | 
CCn1c(C)c(/C=N/Nc2nc3ccccc3s2)c2ccccc21 | inconclusive [inhibitor, full curve, poor fit] | 
Cc1c(Cl)cccc1NC(=O)C1CCCN(S(C)(=O)=O)C1 (configuration not stated) | inconclusive [inhibitor, full curve, poor fit] | 
CC1(C)Cc2ccccc2-c2nc(NCCCO)n(-c3ccccc3)c(=O)c21 | inconclusive [inhibitor, partial curve, poor fit] | 
CC(C)(C)OC(=O)NC1CC2CCCC(C1)N2Cc1ccccc1 (configuration not stated) | inconclusive [inhibitor, full curve, poor fit] | 
COc1ccc(N(/N=C2\Sc3ccccc3C2=O)C(C)=O)cc1 | inconclusive [inhibitor, single point] | 
C[C@H]1CN=C(N(C)C)N1CCCCc1ccccc1 | inconclusive [inhibitor, single point] | 
C=CCc1ccccc1OCC(O)CNC1CCCC1 (configuration not stated) | inconclusive [inhibitor, partial curve] | 
Cc1ccc(C)c(CN2C(=O)COc3ccc(C(=O)c4ccccc4C(=O)O)cc32)c1 | inconclusive [inhibitor, partial curve, poor fit] | 
O=c1c(Cl)nc2cc(Cl)ccc2n1CCNc1ncc(C(F)(F)F)cc1Cl | active: 13.1 µM | 
COc1cc(CCC(=O)OCC(=O)Nc2ccc(F)c(F)c2F)cc(OC)c1OC |  | inactive: -2.12%
c1ccc(Cc2nc3ccccc3n2Cc2ccccc2)cc1 | inconclusive [inhibitor, single point] | 
CCOC(=O)c1ccccc1NC(=O)c1ccc2c(SCC(=O)O)c3c(nc2c1)CCCC3 | active: 2.33 µM | 
O=c1c(-c2ccc([N+](=O)[O-])cc2)coc2c(O)c(O)ccc12 | inconclusive [inhibitor, single point] | 
O=C(/C=C/c1cccs1)Nc1ccc(Br)cn1 |  | inactive: 274%
COC(=O)c1cccc(-n2sc3ccccc3c2=O)c1 | inconclusive [inhibitor, single point] | 
Cc1[nH]c2ccc(C(=O)OC(C)C(=O)NCc3ccccc3)cc2c1C (configuration not stated) | inconclusive [inhibitor, single point] | 
